Test results as given in the supplement of paper PMC8728848.
Some of the results follow.

Key:
Assay in all cases: glycan array binding signal (z-score within array); higher = stronger binding
Settings in all cases: glycan notation: IUPAC condensed, linker removed
[1] = molecular target: GlcNAc(a1-4)Gal(b1-4)GlcNAc(b1-3)Gal(b1-4)Glc
In short: (§1)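 Columns mapping to the same glycan were averaged after glycan names were converted to IUPAC-condensed notation. The data come from 3228 arrays in the Consortium for Functional Glycomics database, limited to those with an available protein sequence. Binding is reported as a within-array Z-score averaged across arrays of one protein sequence and across linkers.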

[2] = molecular target: GlcNAc(a1-4)Gal(b1-4)GlcNAc(b1-3)Gal(b1-4)GlcNAc
In short: as §1

[3] = molecular target: GlcNAc(a1-4)Gal(b1-4)GlcNAc(b1-3)Gal(b1-4)GlcNAc(b1-3)Gal(b1-4)GlcNAc
In short: as §1

[4] = molecular target: GlcNAc(a1-4)Gal(b1-4)GlcNAc(b1-3)Gal(b1-4)[Fuc(a1-3)]GlcNAc(b1-3)Gal(b1-4)[Fuc(a1-3)]GlcNAc
In short: as §1

[5] = molecular target: GlcNAc(a1-6)Gal(b1-4)GlcNAc
In short: as §1

[6] = molecular target: GlcNAc(b1-2)Gal(b1-3)GalNAc
In short: as §1

[7] = molecular target: GlcNAc(b1-2)Man(a1-3)[GlcNAc(b1-2)Man(a1-6)]Man(b1-4)GlcNAc(b1-4)GlcNAc
In short: as §1

[8] = molecular target: GlcNAc(b1-2)Man(a1-3)[GlcNAc(b1-2)Man(a1-6)]Man(b1-4)GlcNAc(b1-4)[Fuc(a1-6)]GlcNAc
In short: as §1

[9] = molecular target: GlcNAc(b1-2)Man(a1-3)[GlcNAc(b1-4)][GlcNAc(b1-2)Man(a1-6)]Man(b1-4)GlcNAc(b1-4)GlcNAc
In short: as §1

[10] = molecular target: GlcNAc(b1-2)[GlcNAc(b1-4)]Man(a1-3)[GlcNAc(b1-2)Man(a1-6)]Man(b1-4)GlcNAc(b1-4)GlcNAc
In short: as §1

[11] = molecular target: GlcNAc(b1-2)[GlcNAc(b1-4)]Man(a1-3)[GlcNAc(b1-4)][GlcNAc(b1-2)Man(a1-6)]Man(b1-4)GlcNAc(b1-4)GlcNAc
In short: as §1

[12] = molecular target: GlcNAc(b1-2)[GlcNAc(b1-4)]Man(a1-3)[GlcNAc(b1-4)][GlcNAc(b1-2)[GlcNAc(b1-6)]Man(a1-6)]Man(b1-4)GlcNAc(b1-4)GlcNAc
In short: as §1

[13] = molecular target: GlcNAc(b1-2)[GlcNAc(b1-6)]Man(a1-6)[GlcNAc(b1-2)Man(a1-3)]Man(b1-4)GlcNAc(b1-4)GlcNAc
In short: as §1

[14] = molecular target: GlcNAc(b1-2)[GlcNAc(b1-6)]Man(a1-6)[GlcNAc(b1-2)Man(a1-3)][GlcNAc(b1-4)]Man(b1-4)GlcNAc(b1-4)GlcNAc
In short: as §1

[15] = molecular target: GlcNAc(b1-3)Gal
In short: as §1

[16] = molecular target: GlcNAc(b1-3)Gal(b1-3)GalNAc
In short: as §1

[17] = molecular target: GlcNAc(b1-3)Gal(b1-4)Glc
In short: as §1

[18] = molecular target: GlcNAc(b1-3)Gal(b1-4)GlcNAc
In short: as §1

[19] = molecular target: GlcNAc(b1-3)Gal(b1-4)GlcNAc(b1-3)Gal(b1-4)GlcNAc
In short: as §1

[20] = molecular target: GlcNAc(b1-3)GalNAc
In short: as §1

[21] = molecular target: GlcNAc(b1-3)Man
In short: as §1

[22] = molecular target: GlcNAc(b1-3)[GlcNAc(b1-4)][GlcNAc(b1-6)]GlcNAc
In short: as §1

[23] = molecular target: GlcNAc(b1-3)[GlcNAc(b1-6)]Gal(b1-4)GlcNAc
In short: as §1

[24] = molecular target: GlcNAc(b1-3)[GlcNAc(b1-6)]GalNAc
In short: as §1

[25] = molecular target: GlcNAc(b1-4)Gal(b1-4)GlcNAc
In short: as §1

[26] = molecular target: GlcNAc(b1-4)GlcNAc
In short: as §1

[27] = molecular target: GlcNAc(b1-4)GlcNAc(b1-4)GlcNAc
In short: as §1

[28] = molecular target: GlcNAc(b1-4)GlcNAc(b1-4)GlcNAc(b1-4)GlcNAc(b1-4)GlcNAc
In short: as §1

[29] = molecular target: GlcNAc(b1-4)GlcNAc(b1-4)GlcNAc(b1-4)GlcNAc(b1-4)GlcNAc(b1-4)GlcNAc
In short: as §1

[30] = molecular target: GlcNAc(b1-4)[GlcNAc(b1-6)]GalNAc
In short: as §1

[31] = molecular target: GlcNAc(b1-6)Gal(b1-4)GlcNAc
In short: as §1

[32] = molecular target: GlcNAc(b1-6)GalNAc
In short: as §1

[33] = molecular target: GlcNAc3Prop(b1-4)GlcNAc
In short: as §1

[34] = molecular target: GlcNAc6S(b1-3)Gal(b1-4)GlcNAc
In short: as §1

[35] = molecular target: Kdn(a2-3)Gal(b1-3)GalNAc
In short: as §1

[36] = molecular target: Kdn(a2-3)Gal(b1-3)GlcNAc
In short: as §1

[37] = molecular target: Kdn(a2-3)Gal(b1-4)Glc
In short: as §1

[38] = molecular target: Kdn(a2-3)Gal(b1-4)GlcNAc
In short: as §1

[39] = molecular target: Kdn(a2-3)Gal(b1-4)[Fuc(a1-3)]GlcNAc
In short: as §1

[40] = molecular target: Kdn(a2-6)Gal(b1-4)GlcNAc
In short: as §1

[41] = molecular target: Man(a1-2)Man(a1-2)Man(a1-3)Man
In short: as §1

[42] = molecular target: Man(a1-2)Man(a1-2)Man(a1-6)[Man(a1-3)]Man
In short: as §1

[43] = molecular target: Man(a1-2)Man(a1-3)Man
In short: as §1

[44] = molecular target: Man(a1-2)Man(a1-3)[Man(a1-2)Man(a1-6)]Man
In short: as §1

[45] = molecular target: Man(a1-2)Man(a1-3)[Man(a1-2)Man(a1-6)]Man(a1-6)[Man(a1-2)Man(a1-2)Man(a1-3)]Man
In short: as §1

B1: Gal 7 (Canis lupus) (protein)
chain: MAGSSNVPHKTSLPEGIRVGTVMRIRGVVPNKAGRFYVNLLCGEAPGSEAALHFNPRLDESTVVFNTLEQGAWGREERGTGIPFQRGQPFDVLLIATDEGFKAVVGDSEYHHFRYRIPPARVRLLEVGGDLQLESVSVF
Which results are given for B1?
glycan array binding signal (z-score) [1]: 1.07; glycan array binding signal (z-score) [2]: 2.48; glycan array binding signal (z-score) [3]: 2.48; glycan array binding signal (z-score) [4]: -0.193; glycan array binding signal (z-score) [5]: -0.191; glycan array binding signal (z-score) [6]: -0.206; glycan array binding signal (z-score) [7]: -0.215; glycan array binding signal (z-score) [8]: -0.208; glycan array binding signal (z-score) [9]: -0.186; glycan array binding signal (z-score) [10]: -0.192; glycan array binding signal (z-score) [11]: -0.18; glycan array binding signal (z-score) [12]: -0.184; glycan array binding signal (z-score) [13]: -0.164; glycan array binding signal (z-score) [14]: -0.18; glycan array binding signal (z-score) [15]: -0.194; glycan array binding signal (z-score) [16]: -0.21; glycan array binding signal (z-score) [17]: -0.207; glycan array binding signal (z-score) [18]: -0.213; glycan array binding signal (z-score) [19]: 0.371; glycan array binding signal (z-score) [20]: -0.219; glycan array binding signal (z-score) [21]: -0.216; glycan array binding signal (z-score) [22]: -0.199; glycan array binding signal (z-score) [23]: -0.22; glycan array binding signal (z-score) [24]: -0.209; glycan array binding signal (z-score) [25]: -0.211; glycan array binding signal (z-score) [26]: -0.211; glycan array binding signal (z-score) [27]: -0.171; glycan array binding signal (z-score) [28]: -0.218; glycan array binding signal (z-score) [29]: -0.211; glycan array binding signal (z-score) [30]: -0.204; glycan array binding signal (z-score) [31]: -0.21; glycan array binding signal (z-score) [32]: -0.213; glycan array binding signal (z-score) [33]: -0.214; glycan array binding signal (z-score) [34]: -0.212; glycan array binding signal (z-score) [35]: -0.21; glycan array binding signal (z-score) [36]: -0.217; glycan array binding signal (z-score) [37]: -0.206; glycan array binding signal (z-score) [38]: -0.203; glycan array binding signal (z-score) [39]: -0.21; glycan array binding signal (z-score) [40]: -0.21; glycan array binding signal (z-score) [41]: -0.217; glycan array binding signal (z-score) [42]: -0.188; glycan array binding signal (z-score) [43]: -0.215; glycan array binding signal (z-score) [44]: -0.209; glycan array binding signal (z-score) [45]: -0.214
